Results reported in publication PMC6919601, “Identification of Plasmodium dipeptidyl aminopeptidase allosteric inhibitors by high throughput screening” (PLoS ONE, 2019).
Values joined by “and” are separate entries in the source; they are usually repeats but may differ in a detail not shown here. Identical values can stand only once. Screen size: about 110,000 compounds; about 230 (0.21%) showed an effect of 50% or more. The list shows a part of the results.

Biological target: DPAP1 (Plasmodium falciparum, UniProt Q8IIJ9)
Sequence (Q8IIJ9 whole entry, looked up): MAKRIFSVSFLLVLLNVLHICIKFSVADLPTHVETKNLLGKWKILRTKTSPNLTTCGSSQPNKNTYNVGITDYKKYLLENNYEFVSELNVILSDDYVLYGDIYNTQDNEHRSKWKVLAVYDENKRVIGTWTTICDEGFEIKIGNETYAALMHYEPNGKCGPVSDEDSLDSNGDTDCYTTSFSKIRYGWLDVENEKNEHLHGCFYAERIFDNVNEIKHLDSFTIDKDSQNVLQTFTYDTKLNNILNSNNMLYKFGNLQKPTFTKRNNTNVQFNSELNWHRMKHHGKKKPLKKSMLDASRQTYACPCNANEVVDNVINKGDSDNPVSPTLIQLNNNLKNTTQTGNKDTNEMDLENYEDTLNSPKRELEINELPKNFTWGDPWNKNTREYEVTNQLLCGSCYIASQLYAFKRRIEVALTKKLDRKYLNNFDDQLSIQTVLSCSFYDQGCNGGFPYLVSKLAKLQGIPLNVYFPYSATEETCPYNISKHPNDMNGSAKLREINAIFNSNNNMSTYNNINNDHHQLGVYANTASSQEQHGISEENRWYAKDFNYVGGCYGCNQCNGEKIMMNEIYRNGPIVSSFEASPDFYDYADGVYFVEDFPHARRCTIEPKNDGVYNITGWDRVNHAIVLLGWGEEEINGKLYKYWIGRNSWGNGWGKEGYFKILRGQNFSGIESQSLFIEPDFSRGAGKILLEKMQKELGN
Test: primary screen, percent inhibition; read by cleavage of a fluorogenic dipeptide substrate; higher = more effect of the substance
Design: species or system P. falciparum D10 trophozoite lysates; single well
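Also: 30 min substrate incubation versus DMSO and 10 µM JCP410 controls.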

Row | Structure (SMILES) | % Inhibition @ 10 uM
1 | Cc1ccc(Cl)cc1-n1c(SCC(=O)NCc2ccco2)nc2nnc(C)c-2c1N | -0.458%
2 | CSc1nccc(Nc2ccccc2)c1C#N | -0.712%
3 | CCC(=O)c1cn(CC(=O)NCc2cccs2)c2ccccc12 | 2.1%
4 | Nc1ncnc2[nH]c(SCc3nc4ccccc4[nH]3)nc12 | 1.25%
5 | Cc1nc(N)sc1Cc1ccc(Oc2nc3c(c(=O)n(C)c(=O)n3C)n2C)cc1 | 8.64%
6 | COc1cccc(-c2nn(C)c3sc(C(=O)NCCN(C)C)cc23)c1 | -0.499%
7 | CCCC(=O)NCCc1nc2ccccc2n1Cc1cc(C)ccc1C | -2.01%
8 | CC1(C)CC2(CCO1)Cc1ccccc1C2=O (centres unmarked) | -6.09%
9 | Cc1[nH]c2ccccc2c1CCNC(=O)C1CCCCC1 | -1.52%
10 | Cc1noc(/C=C/c2cccs2)c1S(=O)(=O)N1CCCC(C(=O)Nc2cccnc2)C1 (centres unmarked) | 0.0579%
11 | Cc1ccc(-n2nc3c(c2NC(=O)c2ccco2)CS(=O)(=O)C3)cc1 | 13.2%
12 | Cc1c(Br)c(C(F)(F)F)nn1CC(=O)N(C)C1CCCCC1 | -5.13%
13 | CCOc1ccc(-n2cccc2/C=C2\C(=N)N3N=C(CC)SC3=NC2=O)cc1 | -3.35%
14 | O=C1CC(N2CCCCC2)C(=O)N1c1ccc(S(=O)(=O)N2CCOCC2)cc1 (centres unmarked) | 5.15%
15 | COc1cc(C=C2C(=O)N(C)C(=S)N(C)C2=O)ccc1O | -2.44%
16 | CCOC(=O)c1c(C)nc(Nc2nc3ccccc3o2)nc1CSc1nnnn1-c1ccccc1 | 1.72%
17 | O=C(Nc1cccc(O)c1)c1cnn2c1NC(c1cccs1)CC2C(F)(F)F (centres unmarked) | 0.385%
18 | Cc1ccc(-c2csc(NC(=O)c3ccc(F)cc3)n2)cc1 | -5.7%
19 | Cc1ccccc1N(CC(=O)Nc1ccccc1Br)S(=O)(=O)c1ccccc1 | 4.77%
20 | C=C(C)CN(CC)Cc1ccccc1[N+](=O)[O-] | -0.0494%
21 | Cc1nn(-c2ccccc2)c2sc(C(=O)NCc3ccco3)cc12 | -0.436%
22 | COc1cccc(S(=O)(=O)NCc2ccccn2)c1 | -8.23%
23 | CC(C)OCCCNC(=O)c1ccc2c(Cl)c3c(nc2c1)CCCC3 | 3.33%
24 | CCC(=O)N1c2ccccc2N=C2CC(C)(C)CC(O)=C2C1c1ccc(C#N)cc1 (centres unmarked) | 5.24%
25 | COc1cc(C2C(C(C)=O)=C(O)C(=O)N2CCc2c[nH]c3ccccc23)ccc1O (centres unmarked) | -5.95%

Row | Structure (SMILES) | % Inhibition @ 10 uM
26 | Cc1cc(/C=C2/NC(=O)N(Cc3ccc(F)cc3)C2=O)c(C)n1C(C)C | 3.5%
27 | CN1CCN(Cc2c(NC(=O)c3ccc(F)cc3)sc3c2CCC3)CC1 | 0.709%
28 | Cc1ccc(-c2onc(C)c2C)cc1S(=O)(=O)N(C)C1CCCCC1 | 12%
29 | Cc1ccc(S(=O)(=O)Cc2ccc(C(=O)NCCCN3CCN(C)CC3)o2)cc1 | 0.458%
30 | COc1ccc(-c2sc(C(=O)Nc3ccccc3)cc2CC(=O)O)cc1 | -2.72%
31 | CC(CNc1ccc(Oc2ccccc2)cc1)C(=O)O (centres unmarked) | -10.9%
32 | Cc1nnc2c(NCC3CCCO3)nc3ccc(C(=O)c4ccccc4)cc3n12 (centres unmarked) | 0.454%
33 | O=C(Nc1ccc(NC(=O)c2ccc(Br)o2)cc1)c1ccco1 | -0.303%
34 | CCN1CCCC1CNC(=O)c1cc2c(=O)oc3ccc(C)cc3c2s1 (centres unmarked) | 2.78%
35 | CC(C)(C)CC(C)(C)NCC(O)COCc1ccccc1 (centres unmarked) | -4.06%
36 | CC(=O)N[C@H]1[C@@H](OCc2ccccc2)O[C@H](CO)[C@@H](O)[C@@H]1OC(=O)c1ccccc1 | -6.44%
37 | Cc1ccc(C)c(CN2CCCN(C(=O)c3nn(C)c4c3COc3ccccc3-4)C2)c1 | -1.72%
38 | CC(C)(C)NS(=O)(=O)c1csc(C(N)=O)c1 | 5.34%
39 | Cc1ccccc1C(=O)Nc1cccc(NC(=O)c2ccccc2C)c1 | 5.92% and 3.72%
40 | COc1cc(C2C(C#N)=C(N)Oc3[nH]nc(-c4cccs4)c32)cc(Br)c1O (centres unmarked) | -4.6%
41 | CCc1c(C)sc(NC(=O)c2cccc(OC)c2OC)c1C#N | -2.68%
42 | O=C(O)Cn1ncc2c1-c1ccoc1CC2 | -1.7%
43 | Cc1ccc(-c2nc3cnn(-c4ccccc4)c(O)c-3n2)cc1 | 2%
44 | CC1CCCN(c2cc(N3CCCC(C)C3)c3nonc3c2[N+](=O)[O-])C1 (centres unmarked) | 2.65%
45 | COc1ccc(C(=O)Nc2cc(Cl)ccc2C)cc1OC | 0.0035%
46 | O=C(NCCc1ccccc1)c1cccc(Br)c1 | -1.77%
47 | O=C(Cn1ncc2c3ccccc3nc-2c1O)N1CCC2(CC1)OCCO2 | -2.96%
48 | C=CCOc1ccc(CNc2nc[nH]n2)cc1OC | -1.38%
49 | COc1cc(OC)c(OC)cc1CN1CCN(Cc2ccccn2)CC1 | -1.11%
50 | COc1cccc(C(=O)C2=C(O)C(=O)N(CCc3ccc(OC)c(OC)c3)C2c2cccnc2)c1 (centres unmarked) | -3.04%

Row | Structure (SMILES) | % Inhibition @ 10 uM
51 | Cc1cccc(NC(=O)CN2C(=O)N/C(=C/c3cc(C)n(-c4ccccn4)c3C)C2=O)c1 | 6.86%
52 | CCOc1cc(C2C(C(C)=O)=C(O)C(=O)N2CCCN(CC)CC)ccc1O (centres unmarked) | 3.16%
53 | COc1ccc(C)cc1NC(=O)c1c(C)c(C)c(C)c(C)c1C | 0.162%
54 | O=C(CCNc1c(N2CCCC2)c(=O)c1=O)NC1CCCc2ccccc21 (centres unmarked) | -5.37%
55 | Cc1cc(C)cc(-n2nnc(-c3nc(-c4ccccc4C)no3)c2N)c1 | 2.19%
56 | O=C(Cc1ccc(Cl)cc1)Nc1ccccc1N1CCN(C(=O)c2ccccc2)CC1 | -6.39%
57 | CCC(=O)N(CCC1(c2ccccc2)CCOC(C)(C)C1)Cc1ccccc1F (centres unmarked) | 3.38%
58 | O=C1NC(=O)/C(=C\c2cccc(Cl)c2Cl)S1 | 1.58%
59 | CC1Nc2nc(NC(=O)c3cccnc3)nc(O)c2N(C(=O)c2cccnc2)C1C (centres unmarked) | -1.04%
60 | CCOc1ccccc1C1C(C#N)=C(N)N(c2cccnc2)C2=C1C(=O)CC(C)(C)C2 (centres unmarked) | -1.37%
61 | CN1C(=O)c2ccc(N3C(=O)c4ccc(C(=O)O)cc4C3=O)cc2C1=O | 0.266%
62 | CCOc1cccc(=O)c2c(C)n(-c3ccc(OC)cc3)c(C)c12 | -4.32%
63 | COc1ccc(Nc2cc(-c3ccccc3)nc(-c3ccccc3)n2)cc1 | 2.65%
64 | COc1ccc(CCN2C(=O)CC(N3CCN(c4ccc(F)cc4)CC3)C2=O)cc1OC (centres unmarked) | 0.231%
65 | O=C(NCc1ccccc1Cl)c1ccc2c(c1)ncn2-c1ccc(F)c(F)c1 | 2.8%
66 | CCOc1ccc2nc(NC(=O)CCNS(=O)(=O)c3ccc4nc(O)ccc4c3)sc2c1 | 1.12%
67 | O=C(COc1ccc(Cl)cc1)N1CCN(c2cccc(Cl)c2)CC1 | -1.98%
68 | Clc1ccc(N2CCN(CC3CC4C=CC3C4)CC2)cc1 (centres unmarked) | -3.37%
69 | Cc1ccc(S(=O)(=O)N(C)CC(=O)Nc2cccc(C)n2)cc1 | 0.843%
70 | Cc1ccc(S(=O)(=O)Nc2ccccc2C(N2CCN(C)CC2)N2CCN(C)CC2)cc1 | -7.02%
71 | Cc1nc(Cl)c(C(=O)NCc2ccccc2)c(C)c1Cl | -4.35%
72 | CCCOc1ccc(C(=O)C2=C(O)C(=O)N(Cc3cccnc3)C2c2ccccc2F)cc1C (centres unmarked) | 4.74%
73 | CCc1nc2nc(C)cc(N3CCN(C4CCCCC4)CC3)n2n1 | 5.9%
74 | COc1ccc(CCNC(=O)c2cc3c(-c4ccccc4F)nn(C)c3s2)cc1OC | -3.23%
75 | CCOC(=O)c1nnn(-c2nonc2N)c1-c1ccc(OCC)cc1 | 1.62%

Row | Structure (SMILES) | % Inhibition @ 10 uM
76 | Cc1ccc2c(=O)c(C(=O)c3ccccc3)cn(CC(=O)NCC3CCCO3)c2n1 (centres unmarked) | -5.67%
77 | CN1CCN(c2nc(-c3ccc(S(=O)(=O)NC4(C(=O)NCC#N)CCCCC4)cc3)cs2)CC1 | -3.04%
78 | C=CCn1c(=N)c(C(=O)OC)cc2c(=O)n3ccccc3nc21 | 5.17%
79 | CCNc1oc(COc2ccccc2)nc1C#N | 1.43%
80 | Cc1ccccc1C(=O)Nc1ccc(Cl)cc1C(=O)c1ccccc1 | -4.4%
81 | C/C(=N/S(=O)(=O)c1ccc(C)cc1)N1CCN(S(=O)(=O)c2ccc(C)cc2)C1c1ccccc1 (centres unmarked) | -3.14%
82 | C/C=C/Cn1c(SCc2ccc(Cl)cc2)nc2c1c(=O)[nH]c(=O)n2C | -4.65%
83 | COc1ccc(NC(=O)c2cccc(S(=O)(=O)Nc3ccc(C)cc3)c2)cc1 | -0.0217%
84 | Cc1cc(=O)n2nc(N3CCCC(C(=O)NC4CCCCCC4)C3)sc2n1 (centres unmarked) | 1.38%
85 | COc1cccc(-c2nn(C)c3sc(C(=O)NCCN4CCOCC4)cc23)c1 | 4.51%
86 | c1ccc(CCn2c(C3CCCO3)nc3ccccc32)cc1 (centres unmarked) | -1.22%
87 | O=C(NCc1ccccc1Cl)C1CCN(c2ncnc3c2sc2cccc(F)c23)CC1 | -5.15%
88 | CC(C)OCCCNC(=O)C1CCN(c2nnc(-n3cccc3)s2)CC1 | 1.15%
89 | Cn1c(CCNC(=O)c2ccc(F)cc2)nc2ccccc21 | 4.06%
90 | Cc1ccc(S(=O)(=O)/N=C2\C=C(N3CCOCC3)C(=O)c3ccccc32)cc1 | 11.8%
91 | Cc1cc(Br)ccc1OCC(=O)Nc1ccc(F)cc1F | 2.84%
92 | CN(C)c1ccc(CN2CCSCC2)cc1 | -2.56%
93 | CCOC(=O)N1CCN(Cc2sccc2C)CC1 | 0.472%
94 | Cc1ccc(-c2ccc(CCC(=O)O)o2)cc1 | 1.52%
95 | COc1ccc(CN2CCN(S(=O)(=O)c3ccc(C)cc3)CC2)c(OC)c1OC | -2.73%
96 | CC(C)Oc1ccc(CNCc2c(C(=O)O)n(Cc3ccc(Cl)cc3)c3ccccc23)cc1 | -1.38%
97 | O=C(O)C1C2CCC(O2)C1C(=O)Nc1ccc(F)cc1 (centres unmarked) | -2.29%
98 | Cc1cc(Cl)ccc1OCCCC(=O)NCc1cccnc1 | -5.57%
